# Assay results as given in PMC4336329 (PLoS ONE, 2015).
# Out of some 310,000 compounds screened, about 14,000 (4.5%) showed an effect of 50% or more. The effect is printed as a negative number. The list shows a part of the results.
# Target: human ether-à-go-go-related gene (hERG) potassium channel (human, UniProt Q12809)
# Assay: primary screen, population patch clamp on CHO cells stably expressing hERG
# 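Also: peak tail current of the secondary pulse compared with the same well before compound.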
# human ether-à-go-go-related gene (hERG) potassium channel, sequence (Q12809 whole entry, looked up): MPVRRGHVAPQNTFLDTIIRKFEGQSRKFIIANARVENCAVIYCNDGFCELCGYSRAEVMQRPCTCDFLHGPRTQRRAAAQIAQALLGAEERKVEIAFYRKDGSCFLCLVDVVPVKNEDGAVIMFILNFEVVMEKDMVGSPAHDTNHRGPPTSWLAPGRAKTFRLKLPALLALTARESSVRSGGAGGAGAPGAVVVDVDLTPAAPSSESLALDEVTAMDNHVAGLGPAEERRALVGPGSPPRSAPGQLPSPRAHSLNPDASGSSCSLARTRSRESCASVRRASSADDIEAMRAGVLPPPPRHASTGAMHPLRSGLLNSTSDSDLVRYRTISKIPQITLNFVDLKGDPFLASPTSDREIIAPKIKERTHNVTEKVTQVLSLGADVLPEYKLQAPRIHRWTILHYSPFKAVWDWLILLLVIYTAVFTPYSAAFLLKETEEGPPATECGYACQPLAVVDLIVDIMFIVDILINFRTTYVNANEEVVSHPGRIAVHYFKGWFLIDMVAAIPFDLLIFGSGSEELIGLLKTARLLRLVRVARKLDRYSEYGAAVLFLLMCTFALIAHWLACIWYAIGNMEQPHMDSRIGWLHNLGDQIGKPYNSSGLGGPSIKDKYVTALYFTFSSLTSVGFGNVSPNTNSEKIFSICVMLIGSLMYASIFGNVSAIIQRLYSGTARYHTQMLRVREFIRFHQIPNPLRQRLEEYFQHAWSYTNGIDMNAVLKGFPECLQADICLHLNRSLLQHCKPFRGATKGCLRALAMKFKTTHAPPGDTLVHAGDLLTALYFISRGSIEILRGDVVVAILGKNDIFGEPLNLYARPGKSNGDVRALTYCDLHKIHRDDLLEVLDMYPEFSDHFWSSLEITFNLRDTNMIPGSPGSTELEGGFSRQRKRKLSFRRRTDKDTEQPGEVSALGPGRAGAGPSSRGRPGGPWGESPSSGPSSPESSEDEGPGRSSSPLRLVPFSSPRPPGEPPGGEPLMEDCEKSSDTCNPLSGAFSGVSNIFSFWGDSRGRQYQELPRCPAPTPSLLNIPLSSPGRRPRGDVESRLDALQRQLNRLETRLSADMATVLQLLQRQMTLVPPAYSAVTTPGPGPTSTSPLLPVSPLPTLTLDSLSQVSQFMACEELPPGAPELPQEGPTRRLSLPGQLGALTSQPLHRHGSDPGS
row,Structure (SMILES),"hERG current change (%, negative = inhibition) at 10uM [%]"
1,O=C(Nc1cccc2oc(=O)ccc12)c1ccc([N+](=O)[O-])cc1[N+](=O)[O-],-59.9
2,COc1ccc(CN2C(=O)c3cccnc3C2=O)cc1S(=O)(=O)N(C)Cc1ccco1,-13.3
3,CC(=O)N1C(C(=O)O)Cc2c([nH]c3ccccc23)C1(C)C (centres unmarked),17
4,COc1ccc(-c2n[nH]c(C)c2-c2ccc(Cl)cc2)c(O)c1OC,14.5
5,CC1CCCC(NC(=O)COC(=O)/C=C/c2ccc3c(c2)OCO3)C1C (centres unmarked),-2.03
6,O=C(CN1CCCCCC1)N/N=C/c1cccc(Cl)c1,-37.5
7,COc1ccccc1N(CC(=O)Nc1ccccc1C(=O)N1CCOCC1)S(C)(=O)=O,15.6
8,CC(=O)O.Cc1ccc(OCCCSc2n[nH]c(N)n2)cc1,10.9
9,Cn1c(=O)c(C(=O)CN2CCCCC2)c(N)n(Cc2ccccc2)c1=O,-22
10,CCOC(=O)C1(CCOc2ccccc2)CCN(Cc2ccc(O)cc2)CC1,-85.1
11,CN(C)Cc1c(O)c(Cl)cc2c3c(c(=O)oc12)CCCC3,5.69
12,CCCCNC(=O)CSc1nnc(Cc2ccccc2)n1CC,-1.33
13,COc1ccc2[nH]c3c(c2c1)CCN1C(=O)N([C@@H](C)C(=O)NCc2ccccc2OC)C(=O)[C@]31C,-17.2
14,Cc1cccc(N2C(=O)CC(c3ccc(F)cc3)C3=C2COC3=O)c1 (centres unmarked),-16.6
15,O=S(=O)(c1ccc(SCc2ccccc2)nc1)N1CCCCC1,4.03
16,COC(=O)C1=C(C)NC(=O)/C1=C\c1cc(C)n(-c2cc(C)cc(C)c2)c1C,10.1
17,CCCCN1CC(=O)N2[C@H](c3ccc(OC)cc3)[C@@H]3C(=O)N(CC)C(=O)[C@@H]3[C@]2(C)C1=O,-2.88
18,CCCC(c1nnnn1Cc1ccco1)N1CCN(C(=O)c2ccco2)CC1.Cl (centres unmarked),-11.8
19,S=c1[nH]c2ccc3ccccc3c2[nH]1,5.22
20,COc1cc([C@@H]2CC=C(C(=O)O)[C@H](c3cccc(Cl)c3)N2S(=O)(=O)c2ccc(C)cc2)cc(OC)c1OC,32.9
21,N#CCCn1nc(-c2ccc(Br)cc2)cc1Nc1ccccc1NC(=O)C(F)(F)F,-17
22,Cn1ncc2c(=O)[nH]cnc21,15.9

row,Structure (SMILES),"hERG current change (%, negative = inhibition) at 10uM [%]"
1,Brc1ccc(CNc2nc3ccccc3n2CCN2CCCCC2)cc1,-62.7
2,CC(=O)c1cccc(NC(=O)Nc2ccc(C(=O)N3CCCC3)cc2)c1,3.52
3,CCOC(=O)N/N=C(/C)c1ccc([N+](=O)[O-])o1,-25.4
4,CCOc1c2ccc(C(=O)NCc3ccc(C(F)(F)F)cc3C(F)(F)F)cc2nn1C,-7.59
5,CCOC(=O)CSc1ccc2nnc(-c3cccs3)n2n1,-51.2
6,C/C(=N\NC(=O)c1cc(C)oc1C)c1ccc(N2CCOCC2)cc1,7.89
7,COc1ccc(O)c(C(=O)c2cc(C#N)c(=O)n(-c3c(C)n(C)n(-c4ccccc4)c3=O)c2)c1,-2.47
8,COc1cc(CCC(=O)OCC(N)=O)cc(OC)c1OC,-1.21
9,O=C(COc1ccc([N+](=O)[O-])cc1)NNC(=O)Nc1ccccc1F,-0.769
10,Cn1c(SCC(=O)Nc2ccc(N3CCOCC3)cc2)nnc1-c1ccco1,6.01
11,CN1C(=O)C(CC(=O)N2CCN(C(c3ccccc3)c3ccccc3)CC2)N(C)C1=O (centres unmarked),-0.215
12,COc1cccc(N2C(=O)CC(N3CCN(CCN=CC4=C(O)CC(C)(C)CC4=O)CC3)C2=O)c1 (centres unmarked),8.67
13,Cc1cccc(NC(=O)CCC(=O)OCc2ccc(Br)cc2)c1,-7.05
14,O=C(COc1ccccc1)Nc1ccc(S(=O)(=O)Nc2ccccn2)cc1,-14.4
15,COc1ccc2c(c1)c(C(=O)CN1CCC3(CC1)OCCO3)c(C)n2Cc1ccccc1,-53
16,Cc1cnc(C(=O)OCc2ccc(COC(=O)c3cnc(C)cn3)cc2)cn1,30.7
17,CC(C)[N+](C)(CCOC(=O)C1c2ccccc2Oc2ccccc21)C(C)C.[Br-],8.11
18,Cc1ccc(CN(C)CCc2ccccn2)cc1,-41.1
19,O=C1CC(N2CCSCC2)C(=O)N1c1cccc(Br)c1 (centres unmarked),-3.54
20,CC(C)Nc1nc(N(c2ccccc2)c2ccccc2)nc(-n2ccnc2)n1,21.3
21,CC1CCc2nc(N)c(C#N)c(-c3ccncc3)c2C1 (centres unmarked),11.5
22,O=C(COC(=O)c1ccc2c(c1)OCO2)Nc1nc(-c2ccccc2)cs1,22.2

row,Structure (SMILES),"hERG current change (%, negative = inhibition) at 10uM [%]"
1,O=C(N/N=C/c1cc(Br)c(Br)o1)c1cccnc1,-2.79
2,COc1ccc(C(=O)C2CCCN(C(=O)C3=CCCC3)C2)c(C)c1 (centres unmarked),-2.27
3,COC(=O)c1ccc(Oc2cc(C)nc(NCc3ccccc3)n2)cc1,4.53
4,COc1ccc(C(=O)OCC(=O)Nc2ccc(OC(F)F)cc2)c(OC)c1,-33.9
5,Cc1cc(C)c(OCC(=O)OCC(=O)N2CCCc3ccccc32)c(C)c1,16
6,NC(=O)c1cc(S(=O)(=O)NCc2ccccc2)cs1,27.4
7,COc1ccc2c(OC)cc(=O)n(C)c2c1,3.11
8,Cc1cc(C)nc(NC(=O)c2ccc([N+](=O)[O-])c(C)c2)n1,7.43
9,CSc1ncc(/C=C2/C(=O)NC(=O)N(c3ccc(C(C)C)cc3)C2=O)cn1,27.7
10,CCCCN(CC)CCNC(=O)c1cc2c(=O)[nH]c3ccc(C)cc3c2s1,-1.34
11,CC(=O)c1ccc(N2CCN(C(=O)CCNC(=O)Cn3ccc4ccccc4c3=O)CC2)cc1,17.5
12,COCC(=O)Nc1nc2ccc(C)cc2s1,10.4
13,CC1CCc2c(sc3nc(CSc4nnnn4C)[nH]c(=O)c23)C1 (centres unmarked),-6.88
14,CCCc1cc(-c2n[nH]c(=S)n2CC)cs1,4.92
15,CCCOc1ccc(CNC(=O)c2ccc3nc(N4CCOCC4)sc3c2)cc1,10.4
16,Cc1ccc(C(=O)COc2ccccc2C(=O)Nc2ccccc2)cc1,12.1
17,CC(C)(C)n1nnnc1C(c1cccs1)N(Cc1cccnc1)Cc1ccco1 (centres unmarked),-45.9
18,COc1ccc(OC)c(/C=N/Nc2nc(C)cc(=O)[nH]2)c1,20.3
19,COc1ccc(N2CCN(C(=O)c3ccc(CS(=O)c4cccc(C)c4)o3)CC2)cc1 (centres unmarked),-43.1
20,CS(=O)(=O)N(CC(=O)N1CCCC1)Cc1ccc(Cl)c(Cl)c1,-0.845
21,Cc1ccc(C(=O)c2nocc2C(=O)c2cccs2)cc1,-19.7
22,Cn1c(=O)n(C)c2cc([N+](=O)[O-])c(N3CCN(C(=O)c4ccccc4Br)CC3)cc21,-70.6

row,Structure (SMILES),"hERG current change (%, negative = inhibition) at 10uM [%]"
1,CSC1=N/C(=C\c2ccc(C)s2)C(=O)S1,15.7
2,COc1ccc(Cl)cc1S(=O)(=O)n1c([N+](=O)[O-])cnc1C,-35.9
3,COc1ccc(C(=O)Nn2c(SCC(=O)NC3CCCC3)nc3ccccc3c2=O)cc1,-9.11
4,CCCOc1ccc(N2C(=O)CC(N(O)c3ccccc3)C2=O)cc1 (centres unmarked),13.1
5,COC(=O)C(C)N(c1ccc(C)cc1)S(=O)(=O)c1c(C)[nH]c(=O)[nH]c1=O (centres unmarked),1.72
6,Cc1cc(C)c(OCC(=O)Nc2cccc(O)c2)cc1C,10.9
7,CCc1ccc(N(C(=O)c2snc(C(N)=O)c2N)C(C(=O)NC2CCCC2)c2ccco2)cc1 (centres unmarked),-11.4
8,O=S(=O)(NCC(c1ccco1)N1CCN(c2ccccc2F)CC1)c1ccc2c(c1)OCCO2 (centres unmarked),20.4
9,COC(=O)C1=C(c2ccccc2OCc2ccccc2)C[C@@H]2CC[C@H]1N2C(=O)NC1CCN(Cc2ccccc2)CC1,-21.6
10,CC(=NCc1ccc2c(c1)OCO2)c1c(O)n(Cc2ccccc2)c(=O)[nH]c1=O,2.69
11,Cc1ccc(N=Cc2nc(/C=C/c3cccc([N+](=O)[O-])c3)oc2O)cc1,-2.61
12,O=C(c1ccc(Cl)s1)N1CCCC1,-0.0803
13,O=C1CN(Cc2cc(=O)oc3cc4c(cc23)CCC4)CCN1,-13.9
14,OCC1(Cc2ccccc2)CCN(Cc2cnc(-c3ccc(Cl)cc3)nc2)CC1,-47.1
15,CC(C)(C)OC(=O)N1CCC(C(=O)N[C@H](Cc2ccccc2)C(=O)O)CC1,2.21
16,CN(C)C(=S)Nc1ccc(S(=O)(=O)N2CCCCC2)cc1,-25.2
17,COc1ccc(/C=N/NC(=O)CNC(=O)c2ccc3c(c2)OCCO3)c(C(=O)O)c1OC,9.5
18,CCOc1ccccc1N(CC(=O)Nc1cccc2ccccc12)S(C)(=O)=O,-10.5
19,Cc1cccc(CNC(=O)Cn2ccc3cc(S(=O)(=O)N4CCCC4)ccc32)c1,11.4
20,CCCCCC(=O)Nc1nc(C)c(-c2csc(Nc3cc(Cl)ccc3OC)n2)s1,16.8
